Measurements taken from article PMC6919601, “Identification of Plasmodium dipeptidyl aminopeptidase allosteric inhibitors by high throughput screening” (PLoS ONE, 2019).
The whole screen tested about 110,000 compounds, of which about 230 (0.21%) showed an effect of 50% or more. This is one part of the list.

target: DPAP1 (Plasmodium falciparum, UniProt Q8IIJ9); experiment: primary screen, percent inhibition; read by cleavage of a fluorogenic dipeptide substrate; higher = more effect of the substance; design: species or system P. falciparum D10 trophozoite lysates; single well
Sequence (Q8IIJ9 whole entry, looked up): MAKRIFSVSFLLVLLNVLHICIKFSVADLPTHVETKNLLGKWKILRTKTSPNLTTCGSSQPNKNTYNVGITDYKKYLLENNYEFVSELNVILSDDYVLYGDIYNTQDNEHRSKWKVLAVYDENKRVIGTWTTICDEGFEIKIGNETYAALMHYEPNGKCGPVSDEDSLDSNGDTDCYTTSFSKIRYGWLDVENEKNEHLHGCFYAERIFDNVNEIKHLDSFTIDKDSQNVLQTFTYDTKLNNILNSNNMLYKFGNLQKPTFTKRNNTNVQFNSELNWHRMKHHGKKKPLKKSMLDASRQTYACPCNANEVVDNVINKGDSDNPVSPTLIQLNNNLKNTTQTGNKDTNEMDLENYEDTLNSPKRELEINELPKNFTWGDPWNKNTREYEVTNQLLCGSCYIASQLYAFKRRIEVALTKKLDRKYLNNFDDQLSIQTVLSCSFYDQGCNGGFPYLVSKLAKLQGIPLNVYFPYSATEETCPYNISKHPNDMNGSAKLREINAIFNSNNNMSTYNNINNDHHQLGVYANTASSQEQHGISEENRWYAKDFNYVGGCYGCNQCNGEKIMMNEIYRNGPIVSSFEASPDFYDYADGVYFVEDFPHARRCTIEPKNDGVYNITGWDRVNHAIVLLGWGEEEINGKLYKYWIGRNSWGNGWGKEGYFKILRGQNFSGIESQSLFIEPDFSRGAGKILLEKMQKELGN
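Also: 30 min substrate incubation versus DMSO and 10 µM JCP410 controls.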

Row | Structure (SMILES) | % Inhibition @ 10 uM [%]
1 | Cc1sc2c(c1C)CN(CCN1CCOCC1)CN2C(=O)c1ccccc1 | -7.15
2 | CCCn1c(S)nc2c1c(=O)n(C)c(=O)n2C | 0.275
3 | Cc1ccc(C2SCC(C(=O)O)N2C(=O)c2ccc(F)cc2)cc1 (stereo not shown) | -3.29
4 | Cc1c(C(=O)N2CCCC2)oc2c1-c1nn(CC(=O)N3CCC(Cc4ccccc4)CC3)cc1CC2 | 0.335
5 | CC1C2NC(=O)N(Cc3ccccc3)C1(C)Oc1ccccc12 (stereo not shown) | 2.17
6 | O=S(=O)(NCCc1ccccc1)c1cnc(Cl)c(Br)c1 | -3.25
7 | CCN1CCCC1CNC(=O)c1cc(N)ccc1OC (stereo not shown) | 1.02
8 | CC(NC(=O)c1cc2c(s1)CS(=O)(=O)C2)C12CC3CC(CC(C3)C1)C2 (stereo not shown) | -3.5
9 | Cc1cc(NC(=O)CN2CCCCC2)no1 | 2.18
10 | CCCn1c2ccccc2c2cnn(CC(=O)N(CCOC)Cc3ccco3)c(=O)c21 | -4.25
11 | Cc1cc(O)n2nc(NC(=O)COc3ccc(Cl)cc3C)nc2n1 | -3.08
12 | Cc1[nH]c2ccccc2c1CCNC(=O)/C(=C/c1ccco1)NC(=O)c1cccc(Br)c1 | 2.18
13 | CCN(CC)CCCNC(=O)c1ccc(-c2nc(CS(=O)(=O)c3ccc(C)cc3)c(C)o2)cc1 | -3.86
14 | Cc1ccnc(NC(=O)Cc2ccccc2F)c1 | -0.0619
15 | CCOC(=O)c1c(NC(=O)c2cc(-c3ccc(OC)c(OC)c3)on2)sc(C(C)=O)c1C | -0.668
16 | Cc1cc(O)nc(N2CCCCC2)n1 | -0.239
17 | CN(C)CCN(C)Cc1ccccc1Br | -4.91
18 | CC(NC(=O)CNC(=S)N(CCCN1CCOCC1)Cc1cccs1)c1ccccc1 (stereo not shown) | 1.27
19 | COc1ccc(C2C(C#N)=C(N)Oc3[nH]nc(-c4ccccc4)c32)cc1 (stereo not shown) | -2.46
20 | C=CCN1C(=O)NC(=O)/C(=C/c2cn(Cc3ccc(Cl)cc3)c3ccccc23)C1=O | 7.93
21 | COc1ccc2c(c1)c1c(c(=O)n(CCc3ccccc3)c(=O)n1CC(=O)N1CCCC1)n2C | -3.72
22 | Cc1ccccc1NC(=O)c1c(C)nc(S)c(C#N)c1-c1ccc(Cl)cc1 | 16.5
23 | O=C(NCC1CCCO1)c1ccc2c(Cl)c3c(nc2c1)CCCC3 (stereo not shown) | 2.47
24 | COc1ccc(OC)c(-c2cc(C(=O)N3CCOCC3)no2)c1 | -1.84
25 | Oc1ncnc2c1sc1nc3ccccc3cc12 | -2.24

Row | Structure (SMILES) | % Inhibition @ 10 uM [%]
26 | CCc1nn(CC(=O)NCCN2CCCCCC2)c(=O)c2cc3occc3n12 | -4.01
27 | COCCNC(=O)Cn1cc2c(n1)-c1c(oc(C(=O)N3CCOCC3)c1C)CC2 | -5.93
28 | CCC(Cc1ccccc1)NC(=O)CN1C(=O)CSc2ncccc21 (stereo not shown) | -2.37
29 | COc1ccc(OC)c(C2CC(=O)N3CN(Cc4ccco4)CSC3=C2C#N)c1 (stereo not shown) | 6.87
30 | Cc1ccc(S(=O)(=O)Nc2cccc3ccc[n+](C)c23)cc1 | 4.88
31 | Cc1ccc(NC(=O)C2CCCC2)cc1O | -2.31
32 | Cc1cccc(OCC(=O)N2CCN(C(=O)COc3cccc(C)c3)CC2)c1 | 1.27
33 | CC1(C)CC2=Nc3ncnn3C(c3ccccn3)C2=C(O)C1 (stereo not shown) | -3.27
34 | COc1ccc2[nH]c(C)c(CCNC(=S)NC(C)(C)C)c2c1 | -5.79
35 | CCOC(=O)c1cn2nc(-c3ccc(OC)cc3)cc2nc1C1CCN(C(=O)OC(C)(C)C)CC1 | -4.74
36 | Cc1ccc(CN2C(=O)c3ccccc3S2(=O)=O)c(C)c1 | 2.09
37 | CCN(CC)C(=O)C1CCCN(Cc2cccc(Cl)c2)C1 (stereo not shown) | -0.127
38 | CS(=O)(=O)C1=NSC2=NC(=O)/C(=C\c3ccc(SCc4ccc(Cl)cc4)o3)C(=N)N21 | -0.0115
39 | CC(C)(C)NC(=O)COc1ccc(CNCc2cccnc2)cc1 | 0.245
40 | CSC1=C(C#N)C(c2ccccc2C)C(C#N)C(=O)N1 (stereo not shown) | 3.06
41 | CC(C)CC1C(C#N)=C(SCC(=O)Nc2ccc(Br)cc2)N=C2CCCC(O)=C21 (stereo not shown) | -1.64
42 | c1cncc(-c2nn3c(Cn4cnc5ccccc54)nnc3s2)c1 | 7.5
43 | Nc1ccccc1C(=O)N(Cc1ccccc1)Cc1ccccc1 | 4.06
44 | COc1ccc(C(=O)Nc2ccc3nn(-c4ccc(OC)cc4)nc3c2)cc1 | 0.643
45 | Cc1cc(C(=O)NCCCN2CCOCC2)c2c(C)nn(-c3ccccc3)c2n1 | 1.84
46 | NC(=O)c1c(NC(=O)CCCc2ccccc2)sc2c1CCCCC2 | 5.83
47 | CC1(C)CC(c2ccccc2)(C(CO)CNCc2ccccc2)CCO1 (stereo not shown) | 2.86
48 | O=C(O)CSc1c(O)nc2ccc(Cl)cc2c1-c1ccccc1 | -2.16
49 | CCn1c2ccccc2c2cc(CN3CCc4ccccc4C3)ccc21 | 0.708
50 | CCOCCCNC(=O)/C(C#N)=C/c1c(Oc2ccccc2F)nc2ccccn2c1=O | -4

Row | Structure (SMILES) | % Inhibition @ 10 uM [%]
51 | CCOC(=O)c1c(CC(C)C)csc1/N=C/C1C(=O)CC(C)(C)CC1=O | -3.14
52 | O=C(NCCc1ccccc1)c1cnccn1 | 0.727
53 | COc1ccc(OCC(=O)N2CCOCC2)cc1 | -3.58
54 | CCOCCCNC(=O)Cn1ncc2c3ccccc3n(C)c2c1=O | -9.31
55 | COc1ccc(C2SCC(=O)N2CC23CC4CC(CC(C4)C2)C3)cc1 (stereo not shown) | 1.33
56 | O=C(O)c1ccc(NC(=O)c2ccccc2NC(=O)c2cccc(F)c2)cc1 | -7.96
57 | O=C1c2ccccc2C2c3[nH]c4ccccc4c3CCN12 (stereo not shown) | -0.0372
58 | CC(C)C(NC(=O)OCc1ccccc1)C(=O)OCC1OC(O)C(O)C(O)C1O (stereo not shown) | -1.29
59 | CN1CCN(C(=O)c2cc(Cl)cc(Cl)c2)CC1 | -0.687
60 | OCCC1CCCCN1Cc1ccccc1F (stereo not shown) | -4.58
61 | CCOc1ccccc1-c1noc(CCCC(=O)N(C)C)n1 | 0.548
62 | COCCNC(=O)Cn1ncn2c(cc3cc(F)ccc32)c1=O | 4.84
63 | O=C(Cn1cnc2sc3c(c2c1=O)CCCC3)Nc1cc(Cl)ccc1Cl | -0.478
64 | O=C1C(=Cc2ccnc3ccccc23)C(=O)c2ccccc21 | 3.31
65 | Cc1ccc(Cn2ccn(Cc3c(F)cccc3Cl)c(=O)c2=O)cc1 | -2.58
66 | Cc1cc(C)n(-c2cc(N)nc(Cl)n2)n1 | -3.49
67 | COc1ccc(OC)c(-c2noc(N3CCN(C(=O)c4ccco4)CC3)n2)c1 | 1.25
68 | CC(O)CN(Cc1cccc(Cl)c1)CC(C)O (stereo not shown) | -7.34
69 | COc1ccc(N2C(=O)C(Cl)=C(Nc3cccc(C)c3)C2=O)cc1 | 1.57
70 | COc1cccc(CN(C)C)c1O | 1.37
71 | CCOc1ccc(C(=O)N(Cc2cccc(F)c2)C2CCS(=O)(=O)C2)cc1 (stereo not shown) | 2.02
72 | Cn1c(CO)nc2ccccc21 | -0.551
73 | COc1ccc(OC)c(CNCc2c(C(=O)O)n(Cc3cccc(F)c3)c3cc(C)ccc23)c1 | -6.42
74 | COC(=O)N1CCN(S(=O)(=O)c2ccc(C)cc2)CC1 | -3.6
75 | Cc1cc2nc(O)c(O)nc2cc1S(=O)(=O)N(C)Cc1ccccc1 | 10.8

Row | Structure (SMILES) | % Inhibition @ 10 uM [%]
76 | CCCCCCn1c(SC(C)C)nc2c1c(=O)[nH]c(=O)n2C | 3.96
77 | Cc1nc(NC(=O)c2cccc(OCC(C)C)c2)ccc1Br | 3.8
78 | CN1CCN(C(=O)c2ccc(Cl)c(S(=O)(=O)N3CCCCC3)c2)CC1 | -0.13
79 | CN(C)c1nc(OCc2ccccc2)c2ncc(O)nc2n1 | 4.03
80 | COc1ccc(/C=C/C2=NC(=C/c3cc(OC)c(OC)c(OC)c3)/C(=O)O2)cc1 | 5.32
81 | N#Cc1c(S)nc2c(c1C1CC=CCC1)CCC2 (stereo not shown) | 43.3
82 | O=C(CC(c1ccccc1)c1ccccc1)N1CCOCC1 | 3.25
83 | O=C(CN1CC(=O)N2CCCC2C1=O)NC1CCCCCC1 (stereo not shown) | -6.99
84 | CC(C)C[C@H](Nc1ccc(C#N)cc1)C(=O)NCC#N | 17
85 | COc1ccc(NC(=O)C2Cc3ccccc3CN2S(=O)(=O)c2cccs2)cc1 (stereo not shown) | -2.15
86 | CN(CC(=O)NC1CCCCC1)S(=O)(=O)c1ccc(Cl)cc1 | 1.83
87 | CCOc1ccc(Cc2nc(C)c(CC(=O)N3CCCCC3)c(O)n2)cc1 | 0.64
88 | CCCc1[nH]nc2c1C(c1ccc(OC)c(Cn3nc(C)c(Br)c3C)c1)C(C#N)=C(N)O2 (stereo not shown) | 3.99
89 | COc1ccc(NC(=O)CN2C(=O)S/C(=C\c3cc(OC)c(O)cc3Br)C2=O)cc1 | -1.16
90 | Cc1ccc2c(c1)-c1onc(C(=O)NCCCN3CCc4ccccc4C3)c1CO2 | 1.69
91 | CCOC(=O)c1cc2c(=O)n3ccccc3nc2n(C(C)C)/c1=N\C(=O)c1ccc2ccccc2c1 | 1.96
92 | O=C(Nc1ccncc1)C(NS(=O)(=O)c1cccc2nsnc12)c1ccccc1 (stereo not shown) | 3.63
93 | O=C(O)c1cccc(S(=O)(=O)/N=C2\C=C(NS(=O)(=O)c3ccccc3)C(=O)c3ccccc32)c1 | 10.6
94 | O=C(Cn1ncn2cccc2c1=O)NCCc1ccc(Cl)cc1 | -6.12
95 | COc1ccc(-c2ccccc2)cc1NC(=O)C(C(F)(F)F)C(F)(F)F | -2.44
96 | CCOC(=O)N1CCN(C(=O)CCN2C(=O)c3ccccc3C2=O)CC1 | -0.256
97 | COc1cc(C2=N/C(=C\c3ccccc3C(F)(F)F)C(=O)O2)cc(OC)c1OC | 1.64
98 | O=C(CN1C(=O)S/C(=C\c2ccc(C(=O)O)cc2)C1=O)Nc1ccccc1 | -3.39
99 | CCOc1ccc(C(=O)Nc2ccc(S(=O)(=O)N3CCC(C)CC3)cc2)cc1OCC | -10
100 | Cc1oc2ccc(OCc3ccccc3)cc2c1C(=O)OC(C)C | -0.357
